Several values for one entry are separate records, joined by “and”; a condition that tells them apart may be missing. Identical values can stand only once. Hit rate of the full screen: of about 410,000 compounds, about 5,000 (1.2%) were called active. Inconclusive means that the source gave no clear call. Such entries were picked first, then a sample of the others. The call rests on the fitted dose curve; in most records, active means well fitted inhibition curve with a large enough effect; inconclusive means small, poorly fitted or top-dose-only effect; inactive means no such curve, though single readings can be large or run the other way. A potency beside an inconclusive call is a rough fit, not a confirmed value.
Experiment: qHTS for Inhibitors of TGF-b; further: nearly all actives have a fitted effect of over 65% in size
Conditions: HepG2 CAGA-GFP TGF-b/SMAD3 reporter, GFP fluorescence, 18 h, TGF-beta stimulated, 500 pg/mL final; series mostly up to 46.1 µM
In short: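 Using HEPG2 CAGA-GFP reporter cells at 1000 cells/well, we pinned test compounds, stimulated with recombinant TGF-beta (500 pg/mL final) and measured total well GFP after 18 h.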
Potency means the concentration at half of the fitted maximal effect; tags describe the fitted curve by direction and shape.

Structure (SMILES) | Potency
Cc1ccc(NC(=O)CSCc2cc(=O)c3ccccc3[nH]2)c(C)c1 | inconclusive: 20 µM [inhibitor, single point]
COc1ccc(C(NC(=O)C2CCN(CCOc3ccc(Cl)cc3Cl)CC2)c2ccccn2)cc1 (configuration not stated) | inconclusive: 20 µM [inhibitor, single point]
Cc1cccc(Cn2c(CN3CCC(C(=O)NC(C)C)CC3)cc3ccccc32)c1 | inconclusive: 35.5 µM [inhibitor, single point]
C[C@@H]1CN([C@H](C)CO)C(=O)c2cccc(NC(=O)Nc3ccc(C(F)(F)F)cc3)c2O[C@H]1CN(C)S(=O)(=O)c1cccs1 | inconclusive: 22.4 µM [inhibitor, single point]
Cc1ccc(S(=O)(=O)/N=C(\c2ccccc2)N(C)S(=O)(=O)c2ccccc2)cc1 | inactive
O=C(/C=C/c1cccc2ccccc12)c1ccncc1 | active: 11.2 µM
O=C1C(=C(I)I)c2ccccc2-c2ccccc21 | active: 6.31 µM
O=C(Nc1ccccc1Cl)c1ccc(-c2ccccn2)s1 | inactive
CN(C1=C(NC(=O)c2ccccc2)C(=O)c2ccccc2C1=O)C1CCS(=O)(=O)C1 (configuration not stated) | active: 17.8 µM
CCOC(=O)c1c(CN(C)C)n(-c2ccc(C)cc2)c2cc(Br)c(O)cc12 | inconclusive: 10 µM [inhibitor, partial curve, poor fit]
CCc1ccccc1N(CC(=O)N1CCCCC1)S(=O)(=O)c1ccccc1 | inconclusive: 7.94 µM [inhibitor, partial curve, poor fit]
O=C(OC(C(=O)NC1CCCC1)c1ccncc1)C1=Cc2ccccc2OC1 (configuration not stated) | inactive
CN1/C(=C/C(=O)C2CC2)C(C)(C)c2ccccc21 | inactive
CCC(=O)N1CCc2cc(S(=O)(=O)CCC(=O)Nc3cc(Cl)ccc3OC)ccc21 | inconclusive: 25.1 µM [inhibitor, partial curve, poor fit]
O=C(CSc1nc2c([nH]c3ccccc32)c(=O)n1-c1ccccc1F)Nc1cccc(Cl)c1 | inconclusive: 3.55 µM [inhibitor, partial curve, poor fit]
CC(Nc1oc(-c2ccc(COc3ccccc3)o2)nc1C#N)c1ccccc1 (configuration not stated) | inconclusive: 22.4 µM [inhibitor, single point]
COc1ccc(C(=O)Nn2c(CC(C)C)nc3cc(Cl)ccc3c2=O)c(OC)c1 | inconclusive: 35.5 µM [inhibitor, single point]
COc1ccc(CC2(C)OC(c3ccc(C)c([N+](=O)[O-])c3)=NN2C(C)=O)cc1 (configuration not stated) | inconclusive: 22.4 µM [inhibitor, single point]
COc1ccc(C(CCNCc2ccc(N(C)C)cc2)c2ccccc2OC)cc1 (configuration not stated) | inconclusive: 22.4 µM [inhibitor, single point]
Cc1ccc(SCC(=O)c2c(C)nc3cc(C)ccn23)cc1 | inactive
CCC(Sc1nnc(-c2ccc(F)cc2)c(-c2ccc(F)cc2)n1)C(=O)NC1CCCC1 (configuration not stated) | inactive
Cc1cc(C)c(-c2c(N)cc(Br)cc2Br)c(N)c1 | inconclusive: 31.6 µM [inhibitor, single point]
O=C(NNC(=O)c1csc(-c2ccccc2)n1)c1ccccc1 | inconclusive: 17.8 µM [inhibitor, single point]

Structure (SMILES) | Potency
Cc1ccc(S(=O)(=O)N2[C@@H](c3ccccc3F)C(C(=O)O)=CC[C@H]2c2ccc(C(C)C)cc2)cc1 | inconclusive: 35.5 µM [inhibitor, single point]
COc1ccccc1NC(=O)CC(=O)CSc1nnc(-c2ccc(C)cc2)n1-c1ccccc1 | inactive
Cn1nc(C(=O)NC2CCCN(Cc3ccccc3F)C2)c2ccccc2c1=O (configuration not stated) | inactive
CC(O)CN=c1cc(-c2ccccc2)oc2ccc(Cl)cc12 (configuration not stated) | inconclusive: 3.55 µM [inhibitor, full curve]
COCCNc1nc(SCC(=O)N2CCN(c3ccccc3)CC2)nc2ccccc12 | inconclusive: 11.2 µM [inhibitor, partial curve, poor fit]
CC1(c2ccccc2)NC(=O)N(CC(=O)Nc2ccccc2N2CCCCC2)C1=O (configuration not stated) | inconclusive: 0.631 µM [inhibitor, full curve, poor fit]
Oc1ccccc1C1=NC(c2ccccc2)NC(c2ccccc2)C1 (configuration not stated) | inactive
C/C=C(/C)C(=O)O[C@@H]1c2c(ccc3ccc(=O)oc23)OC(C)(C)[C@@H]1OC(C)=O | inconclusive: 7.08 µM [inhibitor, partial curve]
CCOC(=O)c1cnc2ccc(OCC)cc2c1NCc1cccnc1 | inconclusive: 35.5 µM [inhibitor, single point]
Cc1ccn2c(Nc3ccccc3)c(-c3c[nH]c4ccccc34)nc2c1 | inconclusive: 35.5 µM [inhibitor, single point]
CCOc1ccc(Nc2ccnc3cc(Cl)ccc23)cc1 | inactive
Cc1c(CN(C)C)c2c(n1Cc1ccccc1)C(=O)c1ccc(Br)cc1-2 | inconclusive: 4.47 µM [inhibitor, single point]
Nc1ncc(Br)cc1S(=O)(=O)Nc1cc(C(F)(F)F)cc(C(F)(F)F)c1 | active: 5.62 µM
O=C(NN=C(c1ccccc1)c1ccccn1)c1ccccc1 | inconclusive: 6.31 µM [inhibitor, single point]
CCCc1cc(C(=O)N2CCCC(C(=O)c3ccc(Cl)cc3)C2)n(C)n1 (configuration not stated) | inconclusive: 35.5 µM [inhibitor, single point]
CS(=O)(=O)N(CC(=O)Nc1ccc(S(=O)(=O)N2CCOCC2)cc1)c1ccccc1Cl | inconclusive: 14.1 µM [inhibitor, single point]
CC(=O)Nc1nc(=O)c2ccccc2s1 | inconclusive: 35.5 µM [inhibitor, single point]
COc1ccccc1Nc1nn2c(=O)c3ccc(C(=O)NCCc4ccccc4)cc3nc2s1 | active: 2.24 µM
O=C(Cc1coc2ccc3ccccc3c12)Nc1nccs1 | inactive
CCN(CC)S(=O)(=O)c1cccc(NC(=O)COC(=O)c2[nH]c(C)c(C(C)=O)c2C)c1 | inactive
COc1cccc(=O)c2c(C)n(CC(=O)c3ccccc3)c(C)c12 | inactive
O=C(NCCn1cc(SCc2ccccc2)c2ccccc21)c1c(F)cccc1F | inconclusive: 28.2 µM [inhibitor, single point]
CCCc1nc(SCC(=O)N2CCc3ccccc3C2)c2ccccc2n1 | inactive

Structure (SMILES) | Potency
CCOc1ccc(NC(=O)CC2C(=O)N(c3ccc(OC)cc3)C(=O)N2CCC2=CCCCC2)cc1 (configuration not stated) | inconclusive: 0.631 µM [inhibitor, full curve, poor fit]
Cc1cc(C(=O)OCC(=O)NCc2ccco2)c(C)n1-c1ccc(F)cc1 | inconclusive: 11.2 µM [inhibitor, partial curve]
CCOC(=O)c1c(C)[nH]c(C(=O)CSc2ccccc2)c1C | inconclusive: 7.08 µM [inhibitor, partial curve, poor fit]
CC(C)Oc1ccc(CNC(=O)c2cnc3sc(N4CCCC4)nn3c2=O)cc1 | inactive
CCc1ccc(/C=C2\SC(=S)N(CCCC(=O)Nc3ccccn3)C2=O)cc1 | inconclusive: 0.447 µM [inhibitor, full curve]
O=C(O)C1OC(Oc2c(-c3ccc(O)c(O)c3)oc3cc(O)cc(O)c3c2=O)C(O)C(O)C1O (configuration not stated) | inactive
COc1ccc(C2/C=C\CN(Cc3ccco3)C(C)C(=O)N2Cc2ccc(F)cc2)cc1 (configuration not stated) | inconclusive: 35.5 µM [inhibitor, single point]
COc1ccc(-c2nn(-c3ccccc3)cc2/C=N/NS(=O)(=O)c2ccccc2)cc1 | inconclusive: 25.1 µM [inhibitor, single point]
CCCCCn1c(CCCNC(=O)c2ccccc2OC)nc2ccccc21 | inconclusive: 14.1 µM [inhibitor, single point]
O=C(NCc1ccccc1Cl)C1=Cc2cc(Br)ccc2OC1 | inconclusive: 22.4 µM [inhibitor, single point]
Cc1ccc2[nH]c(=O)c(CN(CCCN(C)C)C(=O)Nc3ccc(Cl)cc3)cc2c1 | inactive
COc1cc(/C=C(/C#N)c2nc3ccccc3[nH]2)ccc1OCC(=O)Nc1ccccc1C(C)C | inconclusive: 2.51 µM [inhibitor, partial curve, poor fit]
O=C(CN1C(=O)C2CCCCC2C1=O)Nc1nc2ccc(F)cc2s1 (configuration not stated) | inconclusive: 15.8 µM [inhibitor, single point]
CCOc1ccccc1C=NN=Cc1ccccc1O | inactive
Cc1ccccc1NC(=O)CSc1ccc(-c2ccccn2)nn1 | inconclusive: 22.4 µM [inhibitor, single point] and inconclusive: 35.5 µM [inhibitor, single point]
O=C(COC(=O)c1c2c(nc3ccccc13)/C(=C\c1cccs1)CCC2)Nc1ccccc1 | active: 11.2 µM
O=C(CCS(=O)(=O)c1ccccc1)Nc1nc2cc3c(cc2s1)OCO3 | inconclusive: 35.5 µM [inhibitor, single point]
COc1ccc(S(=O)(=O)Nc2cccc(-c3ccc(N4CCCC4)nn3)c2)cc1F | inconclusive: 2.82 µM [inhibitor, partial curve, poor fit]
O=C(NC(=S)Nc1ccccc1N1CCCCC1)c1ccc(F)cc1Cl | inconclusive: 14.1 µM [inhibitor, single point]
CCOc1ccc2nc(NC(=O)c3ccco3)sc2c1 | inactive
Cc1ccc(S(=O)(=O)Nc2ccc(Nc3ccccc3)cc2)cc1 | inconclusive: 20 µM [inhibitor, single point]

From PubChem BioAssay AID588855 (National Center for Advancing Translational Sciences (NCATS), 2011)
